22 molecules from publication PMC12136788 can be followed below.

The chains are these.
T1: UNK ZnF1-6 (called full-length) (human, UniProt Q9C0B0 30-357)
T1 sequence: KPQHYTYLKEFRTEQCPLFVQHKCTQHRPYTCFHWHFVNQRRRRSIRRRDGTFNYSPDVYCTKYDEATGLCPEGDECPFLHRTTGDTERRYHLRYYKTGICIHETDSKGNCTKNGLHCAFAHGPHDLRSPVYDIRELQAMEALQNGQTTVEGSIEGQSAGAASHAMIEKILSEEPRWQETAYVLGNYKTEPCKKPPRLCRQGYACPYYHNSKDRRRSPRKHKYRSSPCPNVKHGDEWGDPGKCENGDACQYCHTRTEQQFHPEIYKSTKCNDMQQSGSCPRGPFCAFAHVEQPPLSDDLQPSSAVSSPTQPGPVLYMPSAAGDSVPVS

B1: chr11:69651811:69651939:+|3pUTR|ENSG00000110092|msi1_unk|FALSE|overlapping (ssRNA)
RNA: GGGAGUUCUACAGUCCGACGAUCUAAAGCACAGCUGUAGUGGGGUUCUAGGCAUCUCUGUACUUUGCUUGCUCAUAUGCAUGUAGUCACUUUAUAAGUCAUUGUAUGUUAUUAUAUUCCGUAGGUAGAUGUGUAACCUCUUCACAACAGAGGAUUGAGCAUCA
B2: chr5:177457090:177457109:-|3pUTR|ENSG00000113758|msi1_unk|FALSE|overlapping (ssRNA)
RNA: GGGAGUUCUACAGUCCGACGAUCGGUAGUUGAGACGCUGUUGCAAAUUCCACCCCUCCUUCCCUGGUCCAGAUUGUAGCUCUUAGUCCUCCCUGCUCAGCUGGCCGGGUUGGAGGCCUCACCCUGCUUGGGGCCUGGCGUGGGCAACAGAGGAUUGAGCAUCA
B3: chr1:26281289:26281390:+|3pUTR|ENSG00000142669|msi1_unk|FALSE|overlapping (ssRNA)
RNA: GGGAGUUCUACAGUCCGACGAUCUCCCUCCUCUCUAAAUGUAGUCCCCUCUCCUCCAUCUAAAGGCAACAUUCCUUACCCAUUAGUCUCAGAAAUUGUCUUAAGCAACAGCCCCAAAUGCUGGCUGCCCCCAGCCAAGCAUUGCAACAGAGGAUUGAGCAUCA
B4: chr4:189940876:189940977:+|5pUTR|ENSG00000109536|unk|FALSE|unique (ssRNA)
RNA: GGGAGUUCUACAGUCCGACGAUCAGUGGAACUCUGAGCCAUUCAGCGUUUGGGUGAAGACGGAGGCGGGUUCUACAGAGACGUAGGCUGUCAGGGAGUGUUUAUUUCGCGUCCGCUUCUGUUUCUCCGCGCCCCUGUGCUGCCCAACAGAGGAUUGAGCAUCA
B5: ENSG00000184898:stop:overlap|stop_codon|ENSG00000184898|stop_codon|NA|stop_codon (ssRNA)
RNA: GGGAGUUCUACAGUCCGACGAUCGGCUGUUAGGGCUUAACUGUUGUCCUCCCACGCCUCGGGGGGAACAAAAGUGGCCUGAUUAGCCAGAAAUGGAGGUCACAGCUGCCUUUUGAAAAGGGCUAAUAAGAACGAUUCGAGCCACAACAGAGGAUUGAGCAUCA
B6: ENSG00000135956:stop:overlap|stop_codon|ENSG00000135956|stop_codon|NA|stop_codon (ssRNA)
RNA: GGGAGUUCUACAGUCCGACGAUCUGAAAGACAGUGCUGCUCCUGCGGGUCAUCGCCGCCUUCUGUUUCCUGGGCAUCCUGUGUAGUCUCUCCGCUUUCCUUCUGGAUGUCUUUGGGCCGAAGCAUCCUGCUCUGAAGAUCACUCAACAGAGGAUUGAGCAUCA
B7: chr19:48922626:48922741:+|3pUTR|ENSG00000104805|msi1|FALSE|unique (ssRNA)
RNA: GGGAGUUCUACAGUCCGACGAUCUCCUCCGAGGGGCUUGCCUUCUCUCGUGUCCAGUGAGGUGCUCAGUGAUCGGCUUAACUUAGAGAAGCCCGCCCCCUCCCCUUCUCCGUCUGUCCCAAGAGGGUCUGCUCUGAGCCUGCGCAACAGAGGAUUGAGCAUCA
B8: ENSG00000154380:stop:overlap|stop_codon|ENSG00000154380|stop_codon|NA|stop_codon (ssRNA)
RNA: GGGAGUUCUACAGUCCGACGAUCAGCUAAAAGAAGAGCUCAUUGAUGCAAUCAGGCAGGAACUGAGCAAGUCAAAUACUGCAUAGAGGAACAGACUAAGGAGAGAUAGGACUUUAAUCUGGAGGAAAAAUAUCCUACAAACAACAACAGAGGAUUGAGCAUCA
B9: chr3:128622278:128622381:-|CDS|ENSG00000163902|unk|FALSE|unique (ssRNA)
RNA: GGGAGUUCUACAGUCCGACGAUCAGCCAGGAUGAAGGUAGCCUGCAUCACAGAGCAGGUCUUGACCCUGGUCAACAAGAGAAUAGGCCUUUACCGUCACUUUGACGAGACCGUCAAUAGGUACAAGCAAUCCCGGGACAUCUCCAACAGAGGAUUGAGCAUCA
B10: chr8:80499649:80499757:+|CDS|ENSG00000205189|unk|FALSE|unique (ssRNA)
RNA: GGGAGUUCUACAGUCCGACGAUCUAAGACUUUAUAUUGCUUUUCAAACAAAGAAAGCCCUAACCAAAACAAUACUACCCACUUAGAUAUUGCUGCAGUUCAAGGUUUUUCAGUCAUCUUGGACUUCUUGUAUUCUGGUAACCUCAACAGAGGAUUGAGCAUCA
B11: chr8:96261867:96261970:+|5pUTR|ENSG00000156471|unk|FALSE|bound_elsewhere (ssRNA)
RNA: GGGAGUUCUACAGUCCGACGAUCUCCUUCCCUCUGCUCCCAGCCUUUGCUGGGCGCCAGACCCGGCUUUGCCGUCCGGCUAUUAGCCUACUGUGGCUAGUCACCCCCGGGGUCCCGGCCUUCUCGGGCUGGGGCCGCCGCCACCAACAGAGGAUUGAGCAUCA
B12: ENSG00000124766:be:win_1251|CDS|ENSG00000124766|bound_else_gene|NA|bound_elsewhere_windowed (ssRNA)
RNA: GGGAGUUCUACAGUCCGACGAUCGUCCCUGGGCAGCUUCAGUUCGUCGUCGGCGCUCGACCGGGACCUGGAUUUUAACUUCGAGCCCGGCUCCGGCUCGCACUUCGAGUUCCCGGACUACUGCACGCCCGAGGUGAGCGAGAUCAACAGAGGAUUGAGCAUCA
B13: chr2:200490383:200490484:-|CDS|ENSG00000155729|msi1|FALSE|unique (ssRNA)
RNA: GGGAGUUCUACAGUCCGACGAUCUCUCCAGCCAGUGCCAUCCAGACGUCGGCUGGGGCGACAGCAAACCGGUUUCAAAGUGGUAGCCGCAGAAAGGCAGCUCAGCGCUCUGCACCUUCCAGAGCCACGGCCCUGGUGGGCACGCAACAGAGGAUUGAGCAUCA
B14: chr10:62806226:62806343:+|3pUTR|ENSG00000181915|unk|total|mutant (ssRNA)
RNA: GGGAGUUCUACAGUCCGACGAUCCUACCCCUCCGUUAAACCGGGUUUAUUUUCCACUCAUGCCCUUAUGCCUUUUUUUCUUACCGUUUUUUAACUUAUUGACUGUGCAUGACCCAGUGGUUUGAAUUGUUUUCCGUUCAAGUCCAACAGAGGAUUGAGCAUCA
B15: ENSG00000107863:be:win_5451|CDS|ENSG00000107863|bound_else_gene|NA|bound_elsewhere_windowed (ssRNA)
RNA: GGGAGUUCUACAGUCCGACGAUCUUUUUGGAAAGUGCAUGAGCAGAGCGGGGAGAGAGAAUCUGAACUUUCAGCUGUAAACCGGUUAAAACCAAAAUGCUCAGCCCAGGACCUUUCCAUCUCAGACUGGCUGGCCAGGGAACGCAACAGAGGAUUGAGCAUCA
B16: chr2:159432892:159433005:-|CDS|ENSG00000123636|unk|FALSE|unique (ssRNA)
RNA: GGGAGUUCUACAGUCCGACGAUCACACCUGUAAUGCCCUCUGCCUCUCCCAUCCUGCAUAGUCAAGGGAAGGAAAAAGCAGUUAGCAAUAAUGUAAACCCAGUAAAAACACAGCAUCACUCCCAUCCUGCAAAAUCUUUAGUGCAACAGAGGAUUGAGCAUCA
B17: chr12:49323620:49323721:+|CDS|ENSG00000135451|unk|total|mutant (ssRNA)
RNA: GGGAGUUCUACAGUCCGACGAUCAUCAUGACCACCCGGCAAGCCACGAAGGAUCCCCUCCUCCGGGGUGUAUCUCCUACCCCCCGCAAGAUUCCGGUACGCUCUCAGAAACGCACGCCUUUCCCCACUGUUACAUCGUGCGCCCAACAGAGGAUUGAGCAUCA
B18: chr2:85649053:85649154:+|3pUTR|ENSG00000168883|unk|FALSE|unique (ssRNA)
RNA: GGGAGUUCUACAGUCCGACGAUCUUCAGCAGGGCAGAACCCUUCUCCAGAUGUGUGUAACUUAUGUCUUGAGUAUCUGGGAGUAGUUGAAGAACAGAUAAUUCCUUCCAAACAUCAAGCCUUGGGAUUCUUGGAGCAAGCAGACAACAGAGGAUUGAGCAUCA
B19: chr20:23564731:23564947:-|three_prime_utr|ENSG00000101435|control|control|control (ssRNA)
RNA: GGGAGUUCUACAGUCCGACGAUCAGCUUUGGACUUGUUUGUUAUCCUAUUUUGCAUGUGUUUGAGAUCUCAGAUCAGUGUUUUAGAAAAUCCACACAUCUUGAGCCUAAUCAUGUAGUGUAGAUCAUUAAACAUCAGCAUUUUCAACAGAGGAUUGAGCAUCA
B20: chr8:17299120:17299221:-|3pUTR|ENSG00000003987|unk|FALSE|unique (ssRNA)
RNA: GGGAGUUCUACAGUCCGACGAUCUCCUCAUUAUUUAAAAAUGCUAAACCUUGUAUCUCACUUUUUCUCUAACACUGAUUUAAUAGCUAACGAGGUAGAAGCAACAUUCAUUCUCCUGGUCUUACAUAUGAAUUUAAGUAUCAGCAACAGAGGAUUGAGCAUCA
B21: chr8:94832020:94832135:+|CDS|ENSG00000164941|unk|FALSE|unique (ssRNA)
RNA: GGGAGUUCUACAGUCCGACGAUCGGUACUAGAAGCAGCCCUAAAAUUAAACAAGGAUCUUUAUGUCCAUACGAUGAGAACUCUAGAUUUAUUGGCCAUGGAACCAGGCAUGGUAAAUGGAGAAACUGAGAGUUCUACUGCUGGCAACAGAGGAUUGAGCAUCA
B22: chr1:179108573:179108674:-|CDS|ENSG00000143322|unk|FALSE|bound_elsewhere (ssRNA)
RNA: GGGAGUUCUACAGUCCGACGAUCAGCCAAGUUAUUGCCCAGAGGAGCCACAGCUCUUCCUCUCAGAACACCCUCUGGGGAUCUAGCCAUUACAGAGAAGGACCCUCCAGGGGUGGGAGUGGCUGGAGUGGCAGCUGCCCCCAACAACAGAGGAUUGAGCAUCA

This is one part of the list.

The assay concerns the target T1, UNK ZnF1-6 (called full-length). In words: nsRBNS (natural sequence RNA bind-n-seq); RBNS binding buffer (assumed for nsRBNS): 25 mM Tris pH 7.5, 150 mM KCl, 3 mM MgCl2, 0.01% Triton X-100, 500 ug/ml BSA, 20 U/ml SUPERase-In, 4 C; UNK is unkempt and MSI1 is Musashi-1; names of the RNAs are library labels; protein concentration not given here; high values mean tight binding.
On to B1, for which the binding signal was determined as 0.537 enrichment R.

For the molecule B2, the binding signal stood at 1.26 enrichment R.

Regarding B3, the binding signal worked out at 1.61 enrichment R.

B4 came in with a binding signal of 0.988 enrichment R.

B5 returned a binding signal of 0.677 enrichment R.

For the molecule B6, the binding signal is 0.575 enrichment R.

On to B7, for which the binding signal stood at 1.05 enrichment R.

For B8, the binding signal turned out to be 0.87 enrichment R.

With B9, the binding signal turned out to be 0.458 enrichment R.

With B10, the binding signal is 0.752 enrichment R.

With B11, the binding signal was 0.583 enrichment R.

B12 returned a binding signal of 0.658 enrichment R.

On to B13, for which the binding signal stood at 0.603 enrichment R.

The molecule B14 had a binding signal of 1.24 enrichment R.

B15 registered a binding signal of 0.782 enrichment R.

In turn, B16 had a binding signal of 1.22 enrichment R.

B17 displayed a binding signal of 0.687 enrichment R.

B18 gave a binding signal of 0.54 enrichment R.

B19 yielded a binding signal of 0.35 enrichment R.

B20 showed a binding signal of 0.619 enrichment R.

On to B21, for which the binding signal was found to be 0.902 enrichment R.

The molecule B22 displayed a binding signal of 0.76 enrichment R.
